The densities may have been worked out from excess volumes.
Test: xn = mol fraction of the nth substance listed
Conditions: 101 kPa

## O=C1CCCC1 + CC[n+]1ccn(C)c1.F[B-](F)(F)F
293.15 K, x1 = 0.0877
  mass density: 1268.9 kg/m3
293.15 K, x1 = 0.1164
  mass density: 1263.6 kg/m3
293.15 K, x1 = 0.1767
  mass density: 1251.9 kg/m3
293.15 K, x1 = 0.2302
  mass density: 1240.7 kg/m3
293.15 K, x1 = 0.2879
  mass density: 1227.8 kg/m3
293.15 K, x1 = 0.3887
  mass density: 1202.9 kg/m3
293.15 K, x1 = 0.478
  mass density: 1177.8 kg/m3
293.15 K, x1 = 0.5878
  mass density: 1142.6 kg/m3
293.15 K, x1 = 0.6115
  mass density: 1134.3 kg/m3
293.15 K, x1 = 0.6411
  mass density: 1123.6 kg/m3
293.15 K, x1 = 0.7649
  mass density: 1073.4 kg/m3
293.15 K, x1 = 0.7867
  mass density: 1063.6 kg/m3
293.15 K, x1 = 0.9061
  mass density: 1004.1 kg/m3
298.15 K, x1 = 0.0877
  mass density: 1265.3 kg/m3
298.15 K, x1 = 0.1164
  mass density: 1260.1 kg/m3
298.15 K, x1 = 0.1767
  mass density: 1248.5 kg/m3
298.15 K, x1 = 0.2302
  mass density: 1237.4 kg/m3
298.15 K, x1 = 0.2879
  mass density: 1224.6 kg/m3
298.15 K, x1 = 0.3434
  mass density: 1211.2 kg/m3
298.15 K, x1 = 0.3887
  mass density: 1199.6 kg/m3
298.15 K, x1 = 0.5114
  mass density: 1164.3 kg/m3
298.15 K, x1 = 0.5878
  mass density: 1139.2 kg/m3
298.15 K, x1 = 0.6115
  mass density: 1130.8 kg/m3
298.15 K, x1 = 0.6411
  mass density: 1120 kg/m3
298.15 K, x1 = 0.6834
  mass density: 1103.7 kg/m3
298.15 K, x1 = 0.7649
  mass density: 1069.4 kg/m3
298.15 K, x1 = 0.7867
  mass density: 1059.6 kg/m3
298.15 K, x1 = 0.8157
  mass density: 1046 kg/m3
298.15 K, x1 = 0.8755
  mass density: 1016 kg/m3
298.15 K, x1 = 0.9061
  mass density: 999.7 kg/m3
303.15 K, x1 = 0.0877
  mass density: 1261.6 kg/m3
303.15 K, x1 = 0.1164
  mass density: 1256.4 kg/m3
303.15 K, x1 = 0.1767
  mass density: 1244.9 kg/m3
303.15 K, x1 = 0.3434
  mass density: 1207.9 kg/m3
303.15 K, x1 = 0.478
  mass density: 1171.2 kg/m3
303.15 K, x1 = 0.5114
  mass density: 1161 kg/m3
303.15 K, x1 = 0.5878
  mass density: 1135.8 kg/m3
303.15 K, x1 = 0.6115
  mass density: 1127.3 kg/m3
303.15 K, x1 = 0.6411
  mass density: 1116.4 kg/m3
303.15 K, x1 = 0.6834
  mass density: 1100 kg/m3
303.15 K, x1 = 0.7649
  mass density: 1065.5 kg/m3
303.15 K, x1 = 0.7867
  mass density: 1055.5 kg/m3
303.15 K, x1 = 0.8157
  mass density: 1041.8 kg/m3
303.15 K, x1 = 0.9061
  mass density: 995.1 kg/m3
308.15 K, x1 = 0.1164
  mass density: 1252.4 kg/m3
308.15 K, x1 = 0.1767
  mass density: 1241.1 kg/m3
308.15 K, x1 = 0.2302
  mass density: 1230.2 kg/m3
308.15 K, x1 = 0.2879
  mass density: 1217.5 kg/m3
308.15 K, x1 = 0.3434
  mass density: 1204.3 kg/m3
308.15 K, x1 = 0.3887
  mass density: 1192.7 kg/m3
308.15 K, x1 = 0.5114
  mass density: 1157.4 kg/m3
308.15 K, x1 = 0.5878
  mass density: 1132 kg/m3
308.15 K, x1 = 0.6115
  mass density: 1123.5 kg/m3
308.15 K, x1 = 0.6411
  mass density: 1112.5 kg/m3
308.15 K, x1 = 0.6834
  mass density: 1096 kg/m3
308.15 K, x1 = 0.7649
  mass density: 1061.2 kg/m3
308.15 K, x1 = 0.7867
  mass density: 1051.2 kg/m3
308.15 K, x1 = 0.8157
  mass density: 1037.3 kg/m3
308.15 K, x1 = 0.8755
  mass density: 1007 kg/m3
308.15 K, x1 = 0.9061
  mass density: 990.4 kg/m3

## CC[n+]1ccn(C)c1.F[B-](F)(F)F + O=C1CCCCC1
293.15 K, x2 = 0.0789
  mass density: 1269 kg/m3
293.15 K, x2 = 0.1407
  mass density: 1256.2 kg/m3
293.15 K, x2 = 0.1861
  mass density: 1246.2 kg/m3
293.15 K, x2 = 0.2271
  mass density: 1236.7 kg/m3
293.15 K, x2 = 0.3069
  mass density: 1216.8 kg/m3
293.15 K, x2 = 0.3898
  mass density: 1194 kg/m3
293.15 K, x2 = 0.4269
  mass density: 1183.1 kg/m3
293.15 K, x2 = 0.489
  mass density: 1163.8 kg/m3
293.15 K, x2 = 0.5007
  mass density: 1160 kg/m3
293.15 K, x2 = 0.5432
  mass density: 1145.9 kg/m3
293.15 K, x2 = 0.6302
  mass density: 1114.8 kg/m3
293.15 K, x2 = 0.7559
  mass density: 1064.7 kg/m3
293.15 K, x2 = 0.779
  mass density: 1054.8 kg/m3
293.15 K, x2 = 0.8235
  mass density: 1035 kg/m3
293.15 K, x2 = 0.8675
  mass density: 1014.5 kg/m3
293.15 K, x2 = 0.9001
  mass density: 998.8 kg/m3
298.15 K, x2 = 0.0789
  mass density: 1265.1 kg/m3
298.15 K, x2 = 0.1407
  mass density: 1252.4 kg/m3
298.15 K, x2 = 0.2271
  mass density: 1233 kg/m3
298.15 K, x2 = 0.3898
  mass density: 1190.5 kg/m3
298.15 K, x2 = 0.5007
  mass density: 1156.6 kg/m3
298.15 K, x2 = 0.6302
  mass density: 1111.2 kg/m3
298.15 K, x2 = 0.6848
  mass density: 1090.1 kg/m3
298.15 K, x2 = 0.7559
  mass density: 1060.8 kg/m3
298.15 K, x2 = 0.779
  mass density: 1050.8 kg/m3
298.15 K, x2 = 0.8235
  mass density: 1030.9 kg/m3
298.15 K, x2 = 0.8675
  mass density: 1010.3 kg/m3
298.15 K, x2 = 0.9001
  mass density: 994.5 kg/m3
303.15 K, x2 = 0.0789
  mass density: 1261.4 kg/m3
303.15 K, x2 = 0.1407
  mass density: 1248.8 kg/m3
303.15 K, x2 = 0.1861
  mass density: 1238.9 kg/m3
303.15 K, x2 = 0.2271
  mass density: 1229.5 kg/m3
303.15 K, x2 = 0.2765
  mass density: 1217.6 kg/m3
303.15 K, x2 = 0.3069
  mass density: 1209.8 kg/m3
303.15 K, x2 = 0.3898
  mass density: 1187.2 kg/m3
303.15 K, x2 = 0.4269
  mass density: 1176.4 kg/m3
303.15 K, x2 = 0.489
  mass density: 1157 kg/m3
303.15 K, x2 = 0.5007
  mass density: 1153.2 kg/m3
303.15 K, x2 = 0.5432
  mass density: 1139 kg/m3
303.15 K, x2 = 0.6302
  mass density: 1107.6 kg/m3
303.15 K, x2 = 0.6848
  mass density: 1086.3 kg/m3
303.15 K, x2 = 0.779
  mass density: 1046.6 kg/m3
303.15 K, x2 = 0.8235
  mass density: 1026.5 kg/m3
303.15 K, x2 = 0.9001
  mass density: 989.9 kg/m3
308.15 K, x2 = 0.1407
  mass density: 1244.9 kg/m3
308.15 K, x2 = 0.1861
  mass density: 1235.1 kg/m3
308.15 K, x2 = 0.2271
  mass density: 1225.8 kg/m3
308.15 K, x2 = 0.3898
  mass density: 1183.5 kg/m3
308.15 K, x2 = 0.4269
  mass density: 1172.5 kg/m3
308.15 K, x2 = 0.489
  mass density: 1153.2 kg/m3
308.15 K, x2 = 0.5007
  mass density: 1149.3 kg/m3
308.15 K, x2 = 0.5432
  mass density: 1135 kg/m3
308.15 K, x2 = 0.6302
  mass density: 1103.5 kg/m3
308.15 K, x2 = 0.6848
  mass density: 1082.1 kg/m3
308.15 K, x2 = 0.7559
  mass density: 1052.4 kg/m3
308.15 K, x2 = 0.779
  mass density: 1042.2 kg/m3
308.15 K, x2 = 0.8235
  mass density: 1022 kg/m3
308.15 K, x2 = 0.9001
  mass density: 985.2 kg/m3

— a compilation of properties of binary mixtures (doi:10.1007/s10973-014-3978-x)
